Test results taken from PubChem BioAssay AID1159614 (National Center for Advancing Translational Sciences (NCATS), 2016).
Hit rate of the full screen: of about 45,000 compounds, about 65 (0.1%) were called active. The call rests on the fitted dose curve; in most records, active means well fitted activation curve with a large enough effect; inconclusive means small, poorly fitted or top-dose-only effect; inactive means no such curve, though single readings can be large or run the other way. This is one part of the list.

Each compound was assayed against Galactocerebrosidase (Homo sapiens) (UniProt P54803) (assay: A Novel Cell-Based Assay to Identify Small Molecules for B -Galactocerebrosidase). Conditions: 145M-Twi-hGALC-G270D cells (Twitcher mouse brain line with human GALC G270D), HMU-beta-Gal fluorescence, 48 h; series mostly up to 57.5 µM; activation: at the top concentration.
Chain of UniProt P54803 (P54803 whole entry, looked up): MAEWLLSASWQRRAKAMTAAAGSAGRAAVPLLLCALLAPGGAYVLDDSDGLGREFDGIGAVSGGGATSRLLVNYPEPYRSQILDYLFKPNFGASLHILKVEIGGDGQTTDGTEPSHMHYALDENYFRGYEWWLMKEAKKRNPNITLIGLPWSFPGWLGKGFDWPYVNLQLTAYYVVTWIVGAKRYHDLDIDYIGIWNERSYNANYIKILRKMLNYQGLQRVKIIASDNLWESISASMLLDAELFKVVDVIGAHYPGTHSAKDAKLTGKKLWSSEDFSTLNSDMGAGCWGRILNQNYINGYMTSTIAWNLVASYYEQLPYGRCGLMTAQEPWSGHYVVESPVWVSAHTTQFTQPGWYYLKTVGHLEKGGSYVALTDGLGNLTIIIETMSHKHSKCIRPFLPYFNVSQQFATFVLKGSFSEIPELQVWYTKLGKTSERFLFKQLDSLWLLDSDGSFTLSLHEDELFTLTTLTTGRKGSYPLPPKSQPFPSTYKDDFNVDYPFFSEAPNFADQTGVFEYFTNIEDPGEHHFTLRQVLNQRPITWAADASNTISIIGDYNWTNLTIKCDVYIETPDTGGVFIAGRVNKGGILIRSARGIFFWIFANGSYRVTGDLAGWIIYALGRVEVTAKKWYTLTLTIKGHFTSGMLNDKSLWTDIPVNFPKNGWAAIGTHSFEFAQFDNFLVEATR
In short: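 Brain-derived Twitcher mouse 145M-Twi cells stably expressing human GALC-G270D or wild-type GALC, treated live, then residual GALC activity read by fluorescence of HMU-b-Gal substrate (0.1 mM final) in citrate-phosphate buffer pH 5.2 with sodium taurocholate. Signal increase indicates enhancement.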
Further: 0% is about no effect; nearly all actives have a fitted effect of over 65% in size.

activation, inactive:
Cc1ccccc1Nc1c(-c2ccc(Cl)cc2)nc2c(C)cccn12 -8.81%
CC(C)c1ccc(NC(=O)C2CCN(S(=O)(=O)c3cccc4nonc34)CC2)cc1 2.32%
Cc1ccc(N2C(=O)CSC23C(=O)N(Cc2ccccc2F)c2ccccc23)cc1F (stereo unspecified) -40.7%
CCOC(=O)c1c(NC(=O)c2nc(SCC)ncc2Cl)sc2c1CCCC2 -20.3%
COc1ccc(NC(=O)Cn2c(=O)n(CCc3ccccc3)c(=O)c3c4c(sc32)CCCC4)cc1 1.29%
COc1cc(NS(=O)(=O)c2ccc(NC(=O)c3cccc(F)c3)cc2)nc(OC)n1 9.09%
COc1cc(NC(=O)CC2C(=O)OCCN2Cc2ccccc2)cc(OC)c1 (stereo unspecified) -10.3%
CCC1CN(S(=O)(=O)c2cc(-c3cc(C)no3)ccc2C)c2cc(Cl)ccc2O1 (stereo unspecified) -15.9%
Cc1ccccc1NC(=O)c1ccc2[nH]c(C)c(C)c2c1 -28.4%
CCC(CC)c1nn2c(=O)cc(COc3ccc(NC(=O)c4ccccc4C)cc3)nc2s1 4.63%
Cc1c(Cl)cccc1NC(=O)Cn1c(=O)n(Cc2ccco2)c(=O)c2sc3ccccc3c21 -6.65%
Cc1c(C(=O)NCc2ccc(Cl)cc2)sc2nc3n(c(=O)c12)CCCCC3 -7.25%
COc1ccc(S(=O)Cc2ccc(C(=O)N3CCN(c4cccc(C)c4C)CC3)o2)cc1 (stereo unspecified) 3.63%
O=C(CCCCn1c(=O)c2ccccc2n(CC(=O)Nc2cccc(C(F)(F)F)c2)c1=O)NCc1ccc2c(c1)OCO2 -1.08%
O=C(Nc1ccc(C(=O)OCc2cc(=O)n3c4c(sc3n2)CCCC4)cc1)c1ccc(F)cc1 -8.47%
CCc1nn2c(-c3ccccc3OC)ccnc2c1-c1ccccc1 -10.7%
COc1cccc(Cn2c(=O)cc(C)c3c(C)nn(C)c32)c1 -7.86%
CCc1cccc(C)c1NC(=O)CCS(=O)(=O)c1cc(Br)cc2c1N(C(=O)C1CC1)CC2 -13.9%
COc1ccc(C(=O)NCC(c2cccnc2)N2CCN(c3ccccc3)CC2)cc1 (stereo unspecified) -7.94%
CCCc1nn2c(=O)cc(COC(=O)c3cccc(NC(=O)c4cccs4)c3)nc2s1 -5.81%
CCOC(=O)c1ccccc1NC(=O)CN1CCCN(Cc2cc(C)ccc2C)S1(=O)=O -17.2%
COc1cc(NC(=O)CN2C(=O)c3ccccc3Sc3ccc(C(=O)N4CCCC4)cc32)cc(OC)c1 -30.4%
COc1ccc(OC)c(CCNC(=O)c2ccc3c(c2)c(C)c(C)n3Cc2ccccc2)c1 -9.02%
Cc1ccccc1NC(=O)c1ccc(F)c(S(=O)(=O)N2CCN(c3ccccc3F)CC2)c1 -5.09%
COc1ccc(-c2nc(CSc3nncn4c3cc3oc(C)cc34)c(C)o2)cc1 -8.03%
O=C(NCCc1ccccc1)C(=O)NCC(c1ccco1)S(=O)(=O)c1cccs1 (stereo unspecified) -18.3%
